# Test results taken from the supplement of paper PMC12645437, “Orthogonal IMiD-Degron Pairs Induce Selective Protein Degradation in Cells” (ACS Chemical Biology, 2025).
# The other results are listed elsewhere or left out.
# B1: Q9UKT9 (peptide)
# chain: FECNQCGAYFTQKGNLLRHIKL
# B2: Q9UKT9 (peptide)
# chain: FYCNVCGAYFTQKGNLLRHIKL
# B3: Q9UKT9 (peptide)
# chain: FWCNICGACFTQKGNLLRHIKL
# B4: Q9UKT9 (peptide)
# chain: FCCNQCGHFFTQKGNLLRHIKL
# B5: Q9UKT9 (peptide)
# chain: FGCNQCGRMFTQKGNLLRHIKL
# B6: Q9UKT9 (peptide)
# chain: FACDICGATFTQKGNLLRHIKL
# B7: Q9UKT9 (peptide)
# chain: FRCPICGREFTQKGNLLRHIKL
# B8: Q9UKT9 (peptide)
# chain: FKCSVCGHLFTQKGNLLRHIKL
# B9: Q9UKT9 (peptide)
# chain: FKCNVCGAEFTQKGNLLRHIKL
# B10: Q9UKT9 (peptide)
# chain: FICNICGANFTQKGNLLRHIKL
# B11: Q9UKT9 (peptide)
# chain: FVCEQCGATFTQKGNLLRHIKL
# B12: Q9UKT9 (peptide)
# chain: FGCPICGHVFTQKGNLLRHIKL
# B13: Q9UKT9 (peptide)
# chain: FNCPICGRGFTQKGNLLRHIKL
# B14: Q9UKT9 (peptide)
# chain: FQCNQCGRSFTQKGNLLRHIKL
# B15: Q9UKT9 (peptide)
# chain: FACSVCGHRFTQKGNLLRHIKL
# B16: Q9UKT9 (peptide)
# chain: FKCDICGAYFTQKGNLLRHIKL
# B17: Q9UKT9 (peptide)
# chain: FHCPICGAGFTQKGNLLRHIKL
# B18: Q9UKT9 (peptide)
# chain: FQCPICGAMFTQKGNLLRHIKL
# B19: Q9UKT9 (peptide)
# chain: FRCNICGARFTQKGNLLRHIKL
# B20: Q9UKT9 (peptide)
# chain: LGCPICGFYCTQKGNLLRHIKL
# B21: Q9UKT9 (peptide)
# chain: FWCNQCGRRFTQKGNLLRHIKL
# B22: Q9UKT9 (peptide)
# chain: FKCEQCGAPFTQKGNLLRHIKL
# B23: Q9UKT9 (peptide)
# chain: FACNVCGAKFTQKGNLLRHIKL
# B24: Q9UKT9 (peptide)
# chain: FHCEICGRLFTQKGNLLRHIKL
# B25: Q9UKT9 (peptide)
# chain: FMCNQCGAPFTQKGNLLRHIKL
# B26: Q9UKT9 (peptide)
# chain: FSCEICGHAFTQKGNLLRHIKL
# B27: Q9UKT9 (peptide)
# chain: FNCEVCGAYFTQKGNLLRHIKL
# B28: Q9UKT9 (peptide)
# chain: FCCEICGAVFTQKGNLLRHIKL
# B29: Q9UKT9 (peptide)
# chain: FGCNQCGHGFTQKGNLLRHIKL
# B30: Q9UKT9 (peptide)
# chain: FTCNICGARFTQKGNLLRHIKL
# B31: Q9UKT9 (peptide)
# chain: FECEVCGAEFTQKGNLLRHIKL
# B32: Q9UKT9 (peptide)
# chain: FMCSVCGHRFTQKGNLLRHIKL
# Target: no compound (DMSO)
# Experiment: log2 fold change of degron read counts, EGFP-low vs EGFP+ sorted cells; higher = lower degron-EGFP level without compound (poor expression or instability)
# Settings: compound: DMSO control; 18 h
# 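Note: jurkat cells carrying a lentiviral library of mutant zinc finger degrons fused to EGFP plus mCherry, mCherry+ cells FACS sorted, degron abundance counted by next-generation sequencing.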
row,Sequence,log2 fold change of degron read counts
1,B1,-0.574
2,B2,0.766
3,B3,0.785
4,B4,1.01
5,B5,0.727
6,B6,-2.1
7,B7,-1.03
8,B8,-0.842
9,B9,-1.93
10,B10,-0.744
11,B11,-2.18
12,B12,0.0242
13,B13,-0.272
14,B14,-0.415
15,B15,-0.218
16,B16,-1.05

row,Sequence,log2 fold change of degron read counts
1,B17,-0.492
2,B18,0.00923
3,B19,-0.727
4,B20,1.58
5,B21,0.888
6,B22,-1.55
7,B23,-1.09
8,B24,-0.246
9,B25,-0.376
10,B26,-0.548
11,B27,-0.406
12,B28,-1.19
13,B29,1.32
14,B30,-0.339
15,B31,-3.08
16,B32,-0.354
